Assay results taken from PubChem BioAssay AID504706 (National Center for Advancing Translational Sciences (NCATS), 2011).
The whole screen tested about 320,000 compounds, of which about 200 (0.062%) were called active. Inconclusive results, whose numbers are uncertain, are shown with a selection of clear calls. Calls come from the whole dose curve; as a rule, active = well fitted activation curve with a large enough effect; inconclusive = small, poorly fitted or top-dose-only effect; inactive = no such curve, though single readings can be large or run the other way. No potency is given beside an inconclusive call; the fits are too rough.

experiment: qHTS assay for re-activators of p53 using a Luc reporter; conditions: H1299 p53-A138V BP100-luciferase reporter, luminescence, 24 h; series mostly up to 92.2 µM; note: nearly all actives have a fitted effect of over 45% in size
Procedure, shortened: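 p53-null H1299 cells stably carrying temperature-sensitive p53-A138V and a BP100-luciferase reporter were pinned with compounds (4-point, 1:5 series) and held 24 hrs at 37 deg C. Luminescence was read 10 min after detection reagent.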
Potency is the fitted concentration of half-maximal effect; tags give direction and shape of the fitted curve.

Structure (SMILES) | Potency
C/C=C/c1ccc(OCC(=O)OCc2csc(Nc3ccc(C)cc3)n2)c(OC)c1 | inconclusive [activator, partial curve, poor fit]
Cn1nc(CSc2ccccc2)c(C=O)c1Cl | inconclusive [activator, single point]
CC(=O)Nc1nc(-c2ccc(Br)s2)cs1 | inconclusive [activator, single point]
CC(C)c1csc(CN2CCC(CCC(=O)NCC3CCCO3)CC2)n1 (configuration not stated) | inconclusive [activator, partial curve, poor fit]
O=C(NC(=S)Nc1ccccc1C(=O)O)c1ccc2ccccc2c1 | inactive
Nc1ccc(-c2nc3ccc([N+](=O)[O-])cc3[nH]2)cc1 | inconclusive [activator, partial curve, poor fit]
Cc1cccc(-c2nc(NCCCN(C)C)c3ccccc3n2)c1 | inconclusive [activator, single point]
CCCNc1c(NS(=O)(=O)c2ccc(C(C)(C)C)cc2)c(=O)oc2ccccc12 | inconclusive [activator, single point]
Cc1cccc(Oc2cc([N+](=O)[O-])cc3c2C(=O)Nc2ccccc2O3)c1 | inactive
CCCCOC(=O)c1ccc(NC(=O)CSc2nncn2C)cc1 | inconclusive [activator, partial curve, poor fit]
CCOc1ccc(NC(=O)c2cccnc2Cl)c([N+](=O)[O-])c1 | inactive
O=C(Nc1ccc(Br)cc1)c1ccc2ncsc2c1 | inconclusive [activator, full curve, poor fit]
COc1ccc(NC(=O)c2ccc(-c3ccccc3Cl)o2)cc1 | inconclusive [activator, partial curve, poor fit]
Cn1c(-c2c(N)n(CCc3ccccc3)c3nc4ccccc4nc23)nc2ccccc21 | inactive
CCC1(c2ccc(Cl)cc2)NC(=S)N(c2ccccc2)N1 (configuration not stated) | inconclusive [activator, full curve, poor fit]
O=C(c1cccs1)N1CCn2c1nc1ccccc12 | inconclusive [activator, partial curve, poor fit]
COc1ccccc1CNC(=O)CN1C(=O)c2cccc(N)c2C1=O | inconclusive [activator, partial curve, poor fit]
O=C(O)/C=C\C(=O)Nc1ccc(Oc2ccc(Br)cc2)cc1 | inactive
Cc1c(Br)c(C(F)(F)F)nn1CC(=O)NCCN1CCOCC1 | inconclusive [activator, full curve, poor fit]
CN(CCS(=O)(=O)c1ccc(Cl)cc1)Cc1cccnc1 | inactive
CS(=O)(=O)Nc1ccc(C(=O)NCCc2ccccc2)cc1 | inconclusive [activator, full curve, poor fit]
O=C(Nc1nccs1)c1ccc(COc2c(F)c(F)cc(F)c2F)cc1 | inconclusive [activator, partial curve, poor fit]
Cc1ccc(-c2noc(-c3ccccc3C(=O)N3CCCC3)n2)cc1 | inconclusive [activator, partial curve, poor fit]

Structure (SMILES) | Potency
O=C(CSCc1ccccc1)N1CCc2ccccc21 | inconclusive [activator, full curve]
Cc1ccc(N2C(=O)CC(NNc3nc4ccccc4s3)C2=O)cc1C (configuration not stated) | inactive
CC(C)(C)c1ccc(OCc2ccc(C(=O)NCc3cccnc3)o2)cc1 | inactive
COc1cc(OC)c(OC)cc1/C=C1\Oc2cc(OS(C)(=O)=O)ccc2C1=O | inactive
O=c1c2ccccc2nc(SCc2ccccc2)n1Cc1ccco1 | inactive
CSC1=NCCN1C(=O)c1c(-c2c(F)cccc2Cl)noc1C | inactive
COc1cccc(NC(=O)CCS(=O)(=O)c2cccs2)c1 | inconclusive [activator, partial curve]
CCC(C)Sc1ccc([C@@H]2[C@@H]3C(=O)N(CC)C(=O)[C@@H]3[C@]3(C(=O)OC)CCCCN23)cc1OC (some centres not stated) | inconclusive [activator, partial curve, poor fit]
COc1ccc(/C=C/C2=NC(=C\N(C)C)/C(=O)O2)cc1 | inconclusive [activator, partial curve, poor fit]
O=C(COc1ccccc1Cl)N1CCc2ccccc21 | inconclusive [activator, partial curve, poor fit]
CC(=O)c1c(C)[nH]c(C(=O)OCC(=O)N2CCN(S(=O)(=O)c3ccc(C)cc3)CC2)c1C | inactive
Cc1ccc(S(=O)(=O)NCC(=O)N(CCc2ccccc2)CC(=O)NCc2ccco2)cc1 | inactive
O=C(NCCCN1CCOCC1)c1cn(-c2ccccc2)nc1-c1ccc(Br)cc1 | inactive
COc1ccc(/C=N/NC(=O)c2ccccc2OC)cc1COc1ccc(C)cc1 | inactive
CN(C)c1cccc(C(=O)NCC2CCCO2)c1 (configuration not stated) | inconclusive [activator, partial curve, poor fit]
CC(=O)c1cccc(OCc2cc(C(=O)N(C)CCC3CCOCC3)no2)c1 | inconclusive [activator, partial curve, poor fit]
O=C(OCC(=O)N1CCC(Cc2ccccc2)CC1)c1ccccc1O | inconclusive [activator, partial curve, poor fit]
Nc1nnc(SCC(=O)c2ccc3ccccc3c2)s1 | inconclusive [activator, full curve, poor fit]
COc1ccc(CCc2nnc(CCC(=O)NCc3cc(C(C)C)no3)o2)cc1 | inconclusive [activator, partial curve, poor fit]
CCOc1ccc(NC(=O)/C=C/c2ccccc2)c([N+](=O)[O-])c1 | inconclusive [activator, partial curve, poor fit]
COc1ccc(C(CNC(=O)c2ccc(C)c(S(=O)(=O)Nc3ccccc3OC)c2)N2CCCC2)cc1 (configuration not stated) | inconclusive [activator, single point]
c1ccc(C2CSc3ccccc3N2)cc1 (configuration not stated) | inconclusive [activator, partial curve, poor fit]
O=C(Nc1ccccc1F)N1CCc2ccccc2C1 | inconclusive [activator, partial curve, poor fit]

Structure (SMILES) | Potency
Cc1[nH]c2c(Br)cccc2c1[C@H]1[C@@H](CC#N)C1(C)C | inconclusive [activator, single point]
O=C(c1ccccc1)c1nn(-c2ccccc2)c2nnc(Cc3ccccc3)c(=O)n12 | inactive
O=C(c1ccccc1)c1cc([N+](=O)[O-])ccc1N1CCOCC1 | inconclusive [activator, single point]
CC(C)OC(=O)CSc1nc2cc3c(cc2cc1C#N)OCO3 | inconclusive [activator, partial curve, poor fit]
Cc1cc(N2CCN(c3ccc(F)cc3)CC2)nc2cc(O)ccc12 | inactive
COc1ccc(NC2=Nc3ccccc3CC2)cc1 | inconclusive [activator, partial curve, poor fit]
CCOc1ncccc1C(=O)OCc1ccc(C(=O)OC)cc1 | inconclusive [activator, partial curve, poor fit]
Cc1ccc(C(=O)NCCc2c[nH]c3ccccc23)c(C)c1 | inconclusive [activator, partial curve, poor fit]
CC(=O)Nc1ccc(NC(=S)Nc2ccccc2)cc1 | inconclusive [activator, partial curve, poor fit]
CC(C)C(C)NC(=O)CSc1nc2scc(-c3ccco3)c2c(=O)n1-c1ccccc1 (configuration not stated) | inactive
C=CCn1c(SCC(=O)Nc2ccc(-c3nc4ccc(C)cc4s3)cc2)nnc1-c1ccncc1 | inconclusive [activator, full curve, poor fit]
COc1cc(C)ccc1OCc1cc(C(=O)NCCN2CCOCC2)no1 | inconclusive [activator, partial curve, poor fit]
O=C(NCc1cccnc1)c1ccc(NC(=O)c2ccco2)cc1 | inconclusive [activator, single point]
COC(=O)C1C(=O)c2c([nH]c(C(=O)OC3CCCC3C)c2C)CC1C (configuration not stated) | inconclusive [activator, partial curve, poor fit]
C=CCN(CC=C)Cc1nc(N)nc(Nc2ccccc2C)n1 | inactive
CC1Oc2ccccc2C=C1/C=N/NC(=O)c1ccccc1O (configuration not stated) | inconclusive [activator, full curve, poor fit]
NC(=O)c1cc(S(=O)(=O)Nc2ccc(OC(F)(F)F)cc2)cs1 | inconclusive [activator, full curve, poor fit]
CCCCCC1CC(CC(=O)Nc2ccc([N+](=O)[O-])cc2)OC1=O (configuration not stated) | inactive
Cc1ccc(NC(=O)c2cc(-c3ccco3)on2)cc1 | inconclusive [activator, partial curve, poor fit]
CO/N=C/c1ccc(Oc2ccc(C)cc2)c([N+](=O)[O-])c1 | inconclusive [activator, partial curve, poor fit]
COc1ccccc1NC(=O)Nc1nnc(Cc2ccc(F)cc2)s1 | inconclusive [activator, single point]
